The campaign covered roughly 310,000 compounds. About 14,000 (4.5%) showed an effect of 50% or more. Effects have a minus sign here. The list shows a part of the results.
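Also: peak tail current of the secondary pulse compared with the same well before compound.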

In the assay the target is human ether-à-go-go-related gene (hERG) potassium channel (human, UniProt Q12809). Put plainly: primary screen, population patch clamp on CHO cells stably expressing hERG.
human ether-à-go-go-related gene (hERG) potassium channel, sequence (Q12809 whole entry, looked up): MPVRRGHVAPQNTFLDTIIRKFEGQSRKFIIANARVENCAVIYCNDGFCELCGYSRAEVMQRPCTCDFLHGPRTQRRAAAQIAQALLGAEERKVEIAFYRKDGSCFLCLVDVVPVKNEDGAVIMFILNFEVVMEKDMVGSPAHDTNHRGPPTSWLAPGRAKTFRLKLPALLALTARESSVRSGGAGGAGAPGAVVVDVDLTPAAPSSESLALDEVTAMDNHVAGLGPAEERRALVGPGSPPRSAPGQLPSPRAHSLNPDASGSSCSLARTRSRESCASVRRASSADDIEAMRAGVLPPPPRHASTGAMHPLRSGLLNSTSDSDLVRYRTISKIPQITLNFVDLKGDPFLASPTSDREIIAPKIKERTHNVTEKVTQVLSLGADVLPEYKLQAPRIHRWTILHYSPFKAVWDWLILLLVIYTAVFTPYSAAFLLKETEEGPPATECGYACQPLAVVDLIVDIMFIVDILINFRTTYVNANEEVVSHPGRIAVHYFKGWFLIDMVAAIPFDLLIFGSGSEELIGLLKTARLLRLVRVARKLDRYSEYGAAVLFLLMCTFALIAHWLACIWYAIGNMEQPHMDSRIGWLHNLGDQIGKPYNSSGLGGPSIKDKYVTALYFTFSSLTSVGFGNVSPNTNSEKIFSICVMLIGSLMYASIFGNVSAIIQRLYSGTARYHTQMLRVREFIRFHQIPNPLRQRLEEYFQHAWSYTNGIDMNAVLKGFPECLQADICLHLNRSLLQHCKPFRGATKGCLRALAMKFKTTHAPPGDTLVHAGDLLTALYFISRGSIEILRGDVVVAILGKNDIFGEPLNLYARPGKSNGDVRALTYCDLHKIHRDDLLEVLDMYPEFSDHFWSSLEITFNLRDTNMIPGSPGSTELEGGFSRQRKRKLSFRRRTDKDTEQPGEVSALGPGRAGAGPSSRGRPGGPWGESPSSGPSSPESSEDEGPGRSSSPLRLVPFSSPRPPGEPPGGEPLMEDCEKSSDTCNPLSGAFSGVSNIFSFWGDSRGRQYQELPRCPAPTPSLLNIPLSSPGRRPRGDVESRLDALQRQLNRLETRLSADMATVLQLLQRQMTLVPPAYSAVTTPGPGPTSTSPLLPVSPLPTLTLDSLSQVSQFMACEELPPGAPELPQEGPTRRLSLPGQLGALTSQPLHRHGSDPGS
As for `O=c1oc2ccccc2c(Cl)c1CN1CCCCC1`, the “hERG current change (%, negative = inhibition) at 10uM” value was found to be 24.1%.
As for `O=c1c2cc(F)ccc2[nH]c(=S)n1CCCN1CCOCC1`, the figure is -3.61%; as for `O=C(c1ccco1)c1n[nH]nc1-c1ccccc1`, 15.4%.
Next, `O=C(NCC1CCCO1)Nc1ccc2c(c1)OCO2` (stereo not drawn): 14.6%; `Cc1ccc(NC(=O)c2ccc(NCCCN3CCC(C)CC3)c([N+](=O)[O-])c2)c(C)c1`: -19.4%; `COc1ccc(-n2c(Cc3cccn3C)nnc2SCC(=O)Nc2cccc(C)c2C)cc1`: -47.1%.
As for `COc1ccc(N2C(=O)CC(NNC(=O)c3cc(C)oc3C)C2=O)cc1` (stereo not drawn), the figure is 23.6%; as for `CCn1ncc(Br)c1C(=O)Nc1sc2c(c1C(N)=O)CCC2`, -2.94%.
`O=C(/C=C/c1ccccc1F)c1cccc([N+](=O)[O-])c1`: the “hERG current change (%, negative = inhibition) at 10uM” value amounted to 30.8%.
As for `O=C1NC(c2ccccc2)Nc2c1sc(=S)n2-c1ccccc1` (stereo not drawn), the figure is -0.422%; as for `CCc1ccc(/C=C2\SC(=S)N(CCCC(=O)Nc3nccs3)C2=O)cc1`, 8.83%.
Next, `CC/S(CC1CC1(Cl)Cl)=N\S(=O)(=O)c1ccc(C)cc1` (stereo not drawn): 5.94%; `O=c1c2ccccc2nc(SCCN2CCCCC2)n1CCc1ccccc1`: -71.7%.
In the case of `CC1C(=O)N(Cc2cccc(F)c2)c2ccccc2N1C(=O)c1ccccc1` (stereo not drawn), the “hERG current change (%, negative = inhibition) at 10uM” value was -4.75%.
As to `COCCn1c(C)cc(C(=O)COC(=O)c2ccc3c(c2)NC(=O)CS3)c1C`, the “hERG current change (%, negative = inhibition) at 10uM” value is -2.47%.
As for `CCOc1ccccc1N1CCN(CC(=O)Nc2ccccc2C(=O)NC2CC2)CC1`, the “hERG current change (%, negative = inhibition) at 10uM” value is recorded as -70.2%.
Consider `C/C(=N\Nc1ccc(S(=O)(=O)N2CCCCC2)cn1)c1ccc(O)cc1`, for which the “hERG current change (%, negative = inhibition) at 10uM” value is -37.2%.
As for `CN(C)/C=C/C(=O)/C=C/c1ccc(Cl)cc1`, the figure is 1.35%.
Next, `COc1ccc(N2CCN(C(=O)COC(=O)CNC(=O)c3cccc(OC(F)F)c3)CC2)cc1`: -43.7%; `O=C(CN1CCN(Cc2ccccc2Cl)CC1)N/N=C/C=C\c1ccccc1[N+](=O)[O-]`: -76.2%; `COc1ccccc1CN(CC(=O)NCc1ccco1)C(=O)CNS(=O)(=O)c1ccccc1`: -15.8%.
For `CC(/C=C/C=C/c1ccccc1)=N\NC(=O)c1cccnc1`, the “hERG current change (%, negative = inhibition) at 10uM” value is -19.1%.
Next, `Cc1ccc(P(=O)(CSC(=N)N)c2ccc(C)cc2)cc1.Cl`: -24.9%.
Next, `N#C/C(=N\Nc1ccccc1Cl)C(=O)c1ccccc1`: 23.5%; `Cc1ccc(NC(=O)c2cc(S(=O)(=O)N3CCOCC3)cn2C)c(C)c1`: 0.0471%; `COc1cccc(CNc2ncc(-c3ccccc3)n2C)c1`: -35.6%.
Next, `CCCC(O)(c1ccc(CC)cc1)C(CN1CCOCC1)c1ccccc1.Cl` (stereo not drawn): -7.6%; `CCn1nc(C)c(CNC(=O)c2cc(COc3ccc(F)cc3Cl)on2)c1C`: -25.9%; `CCOC(=O)C1(Cc2ccccc2)CCN(Cc2cccc3c2OCO3)CC1`: -36.7%.
On to `Cc1cc(OCC(=O)NC(C)C)ccc1Cl`, for which the “hERG current change (%, negative = inhibition) at 10uM” value came out at 14.6%.
Regarding `O=C(COc1ccc(Cl)cc1)NCc1nnc(SCC(=O)c2ccccc2)o1`, the “hERG current change (%, negative = inhibition) at 10uM” value is on record as 3.94%.
As for `Cc1ccccc1OCC(=O)Nc1c2c(nn1C(C)(C)C)CS(=O)(=O)C2`, the figure is -1.05%; as for `CCN(Cc1ccccc1)C(=O)Cc1c[nH]c2ccccc12`, 13.7%; as for `COC(=O)CSc1nnc(CNC(=O)c2ccccc2OC)n1C`, -2.12%.
As for `COc1ccc(-c2csc(NC(=O)CCN3C(=O)C4CC=CCC4C3=O)n2)cc1OC` (stereo not drawn), the “hERG current change (%, negative = inhibition) at 10uM” value is recorded as -18%.
For `CCc1ccccc1NC(=O)CN1CCN(C(=O)CNC(=O)c2ccc(-c3ccccc3)cc2)CC1`, the “hERG current change (%, negative = inhibition) at 10uM” value was -57%.
Next, `Cc1ccc2c(cnn2C(=O)CCC(=O)NCc2cccc(Cl)c2)c1`: 9.24%; `O=c1[nH]c2ccccc2nc1-c1c[nH]c2ccccc12`: 21.5%.
With `CCOCCCNC(=O)CN1CCN(c2ccc(F)cc2)CC1.O=C(O)C(=O)O`, the “hERG current change (%, negative = inhibition) at 10uM” value is -13.1%.
As for `O=C(Cc1ccccc1)NC(Cc1ccc(Cl)cc1)C(=O)O` (stereo not drawn), the figure is 8.41%; as for `Cc1nn(CCCNC(=O)C2CCCO2)cc1Br` (stereo not drawn), 15.5%; as for `COC(=O)Cn1c(=NC(=O)c2ccc(OC)cc2)sc2cc(OC)ccc21`, 2%.
Next, `COc1cc(Cl)c(C)cc1NC(=O)CNC(C)c1ccccc1OC` (stereo not drawn): -2.85%; `CCOc1ccc(S(=O)(=O)N2CCC(C(=O)N3CCN(Cc4ccccc4)CC3)CC2)cc1`: -22.8%.
For the molecule `c1cnc2c(c1)ccc1cccnc12`, the “hERG current change (%, negative = inhibition) at 10uM” value was determined as 20.7%.

Source of the values: paper PMC4336329 (PLoS ONE, 2015).
